# Measured values: publication PMC12136788
# Some of the results follow.
# T1: UNK ZnF1-3 (human, UniProt Q9C0B0 31-174)
# T1 sequence: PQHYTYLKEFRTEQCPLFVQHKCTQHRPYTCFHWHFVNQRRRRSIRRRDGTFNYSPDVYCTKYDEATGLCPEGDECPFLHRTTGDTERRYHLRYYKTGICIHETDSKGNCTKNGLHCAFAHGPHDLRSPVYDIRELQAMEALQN
# B1: chr10:36854569:36854570:-_ENSMUSG00000069662_ENSMUST00000092584|mus_mus|FALSE|FALSE (ssRNA)
# RNA: GGGAGUUCUACAGUCCGACGAUCAAACCACAGCCAAAUGUACUUUUGAUGGCAUGCAAGGCCUUCCUAAAAAAUUAAUCUAAGACCUAGAAGUCAGCCUCAGAACAUAAAAAAACACAACAAAUUUGUACAUUUUAUUCACAUCAACAGAGGAUUGAGCAUCA
# B2: chr6:41757443:41757444:+_ENSG00000214736_ENST00000398881|hu_hu|motif|central (ssRNA)
# RNA: GGGAGUUCUACAGUCCGACGAUCAGCCUGUCUGCUGACCAGAGAAUGGAAUUCUGCGUGGACUCAAGGAACAAAAGGAAACGGGGCAGGGAAGGGGAAGAAAAGUGCCCAUCUGAAUCAAACUUCAGCUGCCAUCAGGGCACACAACAGAGGAUUGAGCAUCA
# B3: chrX:69798090:69798091:-_ENSMUSG00000031343_ENSMUST00000055966|mus_mus|mus_mus_mus_hu_False|18_58 (ssRNA)
# RNA: GGGAGUUCUACAGUCCGACGAUCAAGUCCCCGGGUUCUUGUCGUCUUGAUUCCCCUUGACCAGUGGUUCCAGGGAGAAUACUAAUCAGGAAAAGAAUCCCAAGGCUGGUCAUGUAAAAGUGCCACAUUUGUGUGAUUAUCAUCCAACAGAGGAUUGAGCAUCA
# B4: chr5:21252845:21252846:+_ENSMUSG00000029017_ENSMUST00000030882|mus_hu|motif|central (ssRNA)
# RNA: GGGAGUUCUACAGUCCGACGAUCUGUUUGCAACCAUGAGACAGAUUGUAUCUGGAUGUGCCCAACCAACAGCUUCAACAGCGGUUGCAAGGUGCGCCAAAGGCAUCUUGUCAUCCCUCACACGAAUCUCACUUCCUGUGAAUUCAACAGAGGAUUGAGCAUCA
# B5: 7402660_7402780_1980_CDS_ENSG00000181222_ENST00000322644|human|control|control (ssRNA)
# RNA: GGGAGUUCUACAGUCCGACGAUCUUUGCGCACUGCUGUGAGUGUGUCCUGCACAAUACCCAUGACAGGCCGAUUGCUCUGGGGGGUGACAAUCAUGCGAGGAACCAUGGCCAGCUCCUGGAUCUCUGCUCGCGUCUCCAGAGACAACAGAGGAUUGAGCAUCA
# B6: 33326405_33326857_2386_CDS_ENSG00000005156_ENST00000378526|human|control|control (ssRNA)
# RNA: GGGAGUUCUACAGUCCGACGAUCGAAGUCAGGAUAGUAGAUCUUGUUGACCUUCAACCAGCUGGGUAUUUUGCUGGGGUCCUUGCUGAUCUUCACCAUGUCUAGUUCAUUCUGCAGGCGGGCAAGCGUGGCAUCAUCAUGGCCCAACAGAGGAUUGAGCAUCA
# B7: chr18:13746249:13746250:+_ENSG00000101654_ENST00000262173|hu_hu|motif|central (ssRNA)
# RNA: GGGAGUUCUACAGUCCGACGAUCAUUUUCAUUGUUCUUAAUCUUUUCUUCGUAGAAUUCCAGAAAUGUUUUUUUGUAGACGGGUUUCAUAUUGUACUUCUUUGCCAUUUCAUUUAGCAAUGGAAAAUAGACCAAGAAUUCAGGCAACAGAGGAUUGAGCAUCA
# B8: chr11:111909998:111909999:+_ENSG00000150768_ENST00000533297|hu_hu|motif|central (ssRNA)
# RNA: GGGAGUUCUACAGUCCGACGAUCACCCUUCCCUUUGGUCCAGCAGGAGUAGCUGGGCAGGGUGCUGAAGGUGUAGGAGCGGAAGGCUGGGGAGUUGGAGGAACAGCGGCCACCGGGGGUGGGGUAGGUGGUGGCACUUGUGGUCAACAGAGGAUUGAGCAUCA
# B9: chr3:179287964:179287965:+_ENSG00000136518_ENST00000429709|hu_hu|hu_hu_hu_mus_True|8_48 (ssRNA)
# RNA: GGGAGUUCUACAGUCCGACGAUCCUUGAGUGGUGAGAUGGCCUCCAUGUUCUCCCUGGGCACGCGGAGGGCAUUGGUGUCUAUGUAGUAGGUGGGACCGCCCUGCUUGCCUUUGUCACCAUCAAUCUCCAUUAAUGUACUUCCCAACAGAGGAUUGAGCAUCA
# B10: chr8:104081237:104081238:+_ENSG00000155097_ENST00000518738|hu_hu|motif|central (ssRNA)
# RNA: GGGAGUUCUACAGUCCGACGAUCAAUGGAAUUAAUGCAUACCAUGAUAUCAAUAAGGAAGAGACCUUCUCUUUAAAUAAACGGUUUUGUUUAUAAAUAAACUCUGAUUUUUUUAGUACACAUUUACAGACCUGAUCAAUAAAACAACAGAGGAUUGAGCAUCA
# B11: chr3:148802587:148802588:-_ENSG00000071794_ENST00000310053|hu_mus|hu_hu_hu_mus_False|78_78 (ssRNA)
# RNA: GGGAGUUCUACAGUCCGACGAUCUCCAACAACUUGUCCUCUCAUAGUUCCAAAUAAAACGGAAUCUUGCUCUUCAUCACUCGUUAGGAAGUCAUCUGGAGGAAUAAUGUCUUGGAAUUCAAAAUGUGGCAAGAAAGUUGAGUACAACAGAGGAUUGAGCAUCA
# B12: chr1:66480114:66480115:+_ENSMUSG00000015222_ENSMUST00000024639|mus_hu|mus_mus_mus_hu_True|98_108 (ssRNA)
# RNA: GGGAGUUCUACAGUCCGACGAUCUGGCCUGUGACGGAUGUUCUUUAGAGAGCCACAUUUGGAUGUCACAUGGCUUAGGUCUAUUUUCUUGGUAACAAUUUGUACCUGCCCCCCUUUAGGCUGGUAUUUGAUGUUGUCUGUUGACAACAGAGGAUUGAGCAUCA
# B13: chr2:198351390:198351391:-_ENSG00000144381_ENST00000345042|hu_hu|hu_hu_hu_mus_False|48_68 (ssRNA)
# RNA: GGGAGUUCUACAGUCCGACGAUCUCAUUCCCACCCUCCACAGAAAGGCUGCUUCUGAACUCUCAUGGUGGUGGCAAGCGCUACAGUCCUGAUUUUAACAGAACAGUAGAGAUGCCUCAGUGAUUUAAGUUGAAAGCAGGACACCAACAGAGGAUUGAGCAUCA
# B14: chr11:97546686:97546687:+_ENSMUSG00000038437_ENSMUST00000044730|mus_hu|FALSE|FALSE (ssRNA)
# RNA: GGGAGUUCUACAGUCCGACGAUCUACGAACUGCCCUUCGUACAAAUAACAUCCGUUAUACAAAGAUACAAGAUCCGGGUUAUGCACAAUUCCAGGCUUGGAGGUGGCAGGGGGGCAUCGCCUUUGGGCUGAGGAUAUCAAGGUCAACAGAGGAUUGAGCAUCA
# B15: chr4:17845017:17845018:+_ENSG00000109805_ENST00000514176|hu_hu|motif|central (ssRNA)
# RNA: GGGAGUUCUACAGUCCGACGAUCCUUUCCUAACUUAGAUCUUCAUUGAGAAAUUGGGCAAGGUUAAGUUUACUUUUUUCGGGUGCUGCGGUUUUGGCUCGUCUUGGUAGUCUCAUCUUCAUUUCUGAUUCUGGUUCUGGAACUCAACAGAGGAUUGAGCAUCA
# B16: chr1:155330963:155330964:-_ENSMUSG00000042699_ENSMUST00000042141|perfect_dup|FALSE|FALSE (ssRNA)
# RNA: GGGAGUUCUACAGUCCGACGAUCACCUUCCACCUGAACCUCACACAUGAAUUUCUGCCUGUUUUUGUUCCCCACUGCUCUAAUUUCAUAGGAUGGGGUCAUCUUCCUUUUGCCACACCAGGCAUACAGAAAAUUUUUAACGUCCAACAGAGGAUUGAGCAUCA
# B17: chr11:126104937:126104938:+_ENSG00000197798_ENST00000360194|hu_hu|motif|central (ssRNA)
# RNA: GGGAGUUCUACAGUCCGACGAUCCUUCCUGGGCUUUUUGGUGGGAGGUUCGCCAUCGUUGAAGAAUCCAAAAAUCUCGUCGGUAUCAGAGGCCUGGCUCCCUGUAGAAGCCAUCCAGUUUCGAGUCUCCUCCAAACGCCACUGCAACAGAGGAUUGAGCAUCA
# B18: chr14:102349618:102349619:+_ENSG00000078304_ENST00000445439|hu_mus|motif|central (ssRNA)
# RNA: GGGAGUUCUACAGUCCGACGAUCUACAAACUUCUGAUCAAUAUAUUUCUUUGCUAUAUUGGGUUGGAAAUCUGGAGACUCGGAAAAUCUUAAGAAAAAUUCAUAAACAAGCUGCAGAUGAGGCCAGGCUGCUUCUAACGUUGGCAACAGAGGAUUGAGCAUCA
# B19: 28425430_28425550_7441_3pUTR_ENSG00000104290_ENST00000240093|human|control|control (ssRNA)
# RNA: GGGAGUUCUACAGUCCGACGAUCCCACAAUGAAAACCAACAAGUGAAUCACUUUUUCAAAACUUUUUCUCAAUCAGAAAAAAUGAGGUACAUAAAAGCCAAAAAGUCAAAGACAAAAAACAUUAUAGGGUCUACAUUCUUCUUCAACAGAGGAUUGAGCAUCA
# B20: chr15:31520727:31520728:-_ENSMUSG00000022234_ENSMUST00000022842|mus_hu|motif|central (ssRNA)
# RNA: GGGAGUUCUACAGUCCGACGAUCUCUUCAUUCUUCAGAUUCUCCAGGCUUACGAAUGUCAUCAAUCUUCAAAAUCAUUCGGACCAUUUGUGUUGCAAGAGAUAUCUGUUGCUUUUUGCCAAUCAAGGUUUCUAUGACAUGCUGCAACAGAGGAUUGAGCAUCA
# B21: chr10:33214929:33214930:-_ENSG00000150093_ENST00000302278|hu_hu|hu_hu_hu_mus_True|38_78 (ssRNA)
# RNA: GGGAGUUCUACAGUCCGACGAUCAACAAGUUCAUUGAAAAACUCUCCUCUGUCAGUAAGACUGAGCACAUUUUUGUAGCUAAAUGGGCUGGUGCAGUUCUGUUCACUUGUACAAGGAUUUCUUAGCUUUGCUGGGGUUGUGCUCAACAGAGGAUUGAGCAUCA
# B22: 133976488_133976608_4332_3pUTR_ENSG00000205060_ENST00000378509|human|control|control (ssRNA)
# RNA: GGGAGUUCUACAGUCCGACGAUCGAUAUAAAUGUAUCAAGUACAUUACAGUUGUUUUAGUUGGACGAAAAAGAAAACAAAGAAUCAAAAAUAAAUUACUAAUAAACAUGAAAAAGAUAACAUGUUUCUAAUAUGACAAUAGAGCAACAGAGGAUUGAGCAUCA
# Biological target: T1, UNK ZnF1-3
# Assay: nsRBNS (natural sequence RNA bind-n-seq); RBNS binding buffer (assumed for nsRBNS): 25 mM Tris pH 7.5, 150 mM KCl, 3 mM MgCl2, 0.01% Triton X-100, 500 ug/ml BSA, 20 U/ml SUPERase-In, 4 C; UNK is unkempt and MSI1 is Musashi-1; names of the RNAs are library labels; protein concentration not given here; high values mean tight binding
row,Binder,binding signal [enrichment R]
1,B1,1.69
2,B2,1.8
3,B3,0.609
4,B4,0.73
5,B5,0.652
6,B6,0.632
7,B7,0.704
8,B8,1.69
9,B9,0.655
10,B10,0.733
11,B11,1.43
12,B12,0.373
13,B13,1.1
14,B14,1.46
15,B15,0.381
16,B16,0.84
17,B17,0.756
18,B18,1.86
19,B19,1.31
20,B20,0.774
21,B21,1.05
22,B22,3.16
